# In paper PMC2678945 (The Journal of neuroscience : the official journal of the …, 2008):
# Biological target: hTRPA1-S873V/T874L (Homo sapiens, UniProt O75762, S873V/T874L)
# Assay: cell-based
Structure (SMILES),IC50,EC50
"CC(C)c1ccc(NC(=O)Cn2cnc3c2c(=O)n(C)c(=O)n3C)cc1 [HC030031, 2-(1,3-dimethyl-2,6-dioxo-1,2,3,6-tetrahydro-7H-purin-7-yl)-N-(4-isopropylphenyl)acetamide]",8.51 ± 1.36 µM,–
"CC(C)[C@@H]1CC[C@@H](C)C[C@H]1O [Menthol, (-)-Menthol]",–,161 ± 31.5 µM
